Some of the results follow. Many values rest on one well or one pass, so single values are uncertain.
Columns and labels:
Test in all cases: cell count relative to DMSO control; melanoma cells; higher = more viable cells
Details in all cases: library dose: standard library concentration; 72 h
G361 = tested on: G361
IPC-298 = tested on: IPC-298
IST-MEL1 = tested on: IST-MEL1
LB2518-MEL = tested on: LB2518-MEL
LOXIMVI = tested on: LOXIMVI
MEL-HO = tested on: MEL-HO
MZ2-MEL = tested on: MZ2-MEL
MeWo = tested on: MeWo
RPMI7951 = tested on: RPMI7951
RVH-421 = tested on: RVH-421
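Also: cells treated in 1,536-well plates, then fixed and DAPI-stained, with nuclei counted from automated high-throughput microscope images.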

C[C@]1(O)C[C@@H](c2nc(-c3ccc4ccc(-c5ccccc5)nc4c3)c3c(N)nccn32)C1 + CC1(C)NC(=O)N(c2ccc([N+](=O)[O-])c(C(F)(F)F)c2)C1=O [nilutamide] (first compound 2 µM, partner dose 5 µM)
cell count (G361): 76.9%
cell count (IPC-298): 96.9%
cell count (IST-MEL1): 86.2%
cell count (LB2518-MEL): 98.8%
cell count (LOXIMVI): 83.1%
cell count (MEL-HO): 87.1%
cell count (MZ2-MEL): 123%
cell count (MeWo): 81.2%
cell count (RPMI7951): 126%
cell count (RVH-421): 104%

CCN(CC)CCNC(=O)c1c(C)[nH]c(/C=C2\C(=O)Nc3ccc(F)cc32)c1C [sunitinib] + CO[C@@H]1[C@H](N(C)C(=O)c2ccccc2)C[C@H]2O[C@]1(C)n1c3ccccc3c3c4c(c5c6ccccc6n2c5c31)C(=O)NC4 [Midostaurin] (first compound 2 µM, partner dose 0.4 µM)
cell count (G361): 70.7%
cell count (IPC-298): 77.7%
cell count (IST-MEL1): 84.5%
cell count (LB2518-MEL): 53.4%
cell count (LOXIMVI): 69.8%
cell count (MEL-HO): 88.8%
cell count (MZ2-MEL): 91.2%
cell count (MeWo): 59.4%
cell count (RPMI7951): 37.4%
cell count (RVH-421): 113%

COc1cc([C@@H]2c3cc4c(cc3[C@@H](O[C@@H]3O[C@@H]5CO[C@@H](C)O[C@H]5[C@H](O)[C@H]3O)[C@H]3COC(=O)[C@H]23)OCO4)cc(OC)c1O [etoposide] + Cn1cnc2c(F)c(Nc3ccc(Br)cc3Cl)c(C(=O)NOCCO)cc21 [selumetinib] (first compound 0.1 µM, partner dose 0.075 µM)
cell count (G361): 68.1%
cell count (IPC-298): 46.5%
cell count (IST-MEL1): 91.4%
cell count (LB2518-MEL): 41.4%
cell count (LOXIMVI): 109%
cell count (MEL-HO): 84.5%
cell count (MZ2-MEL): 52.4%
cell count (MeWo): 69.7%
cell count (RPMI7951): 131%
cell count (RVH-421): 74.9%

CCN(CC)CCNC(=O)c1c(C)[nH]c(/C=C2\C(=O)Nc3ccc(F)cc32)c1C [sunitinib] + Cc1cc([N+](=O)[O-])ccc1NS(=O)(=O)c1cc(Cl)ccc1Cl [FH535] (first compound 2 µM, partner dose 5 µM)
cell count (G361): 45.6%
cell count (IPC-298): 50.4%
cell count (IST-MEL1): 60.2%
cell count (LB2518-MEL): 77%
cell count (LOXIMVI): 82.2%
cell count (MEL-HO): 58.2%
cell count (MZ2-MEL): 79.1%
cell count (MeWo): 47.6%
cell count (RPMI7951): 71.2%
cell count (RVH-421): 79.9%

Cn1cnc2c(F)c(Nc3ccc(Br)cc3Cl)c(C(=O)NOCCO)cc21 [selumetinib] + CNC(=O)c1cc(Oc2ccc(NC(=O)Nc3ccc(Cl)c(C(F)(F)F)c3)cc2)ccn1 [sorafenib] (first compound 0.075 µM, partner dose 2 µM)
cell count (G361): 68.8%
cell count (IPC-298): 49.6%
cell count (IST-MEL1): 84%
cell count (LB2518-MEL): 54.8%
cell count (LOXIMVI): 134%
cell count (MEL-HO): 77%
cell count (MZ2-MEL): 67.6%
cell count (MeWo): 57.1%
cell count (RPMI7951): 111%
cell count (RVH-421): 84.8%

COc1cc([C@@H]2c3cc4c(cc3[C@@H](O[C@@H]3O[C@@H]5CO[C@@H](C)O[C@H]5[C@H](O)[C@H]3O)[C@H]3COC(=O)[C@H]23)OCO4)cc(OC)c1O [etoposide] + Nc1ncn([C@H]2C[C@H](O)[C@@H](CO)O2)c(=O)n1 [decitabine] (first compound 0.1 µM, partner dose 0.5 µM)
cell count (G361): 72.1%
cell count (IPC-298): 52.6%
cell count (IST-MEL1): 87.9%
cell count (LB2518-MEL): 94.3%
cell count (LOXIMVI): 70.2%
cell count (MEL-HO): 89.1%
cell count (MZ2-MEL): 67.4%
cell count (MeWo): 73%
cell count (RPMI7951): 84.9%
cell count (RVH-421): 103%

CCN(CC)CCNC(=O)c1c(C)[nH]c(/C=C2\C(=O)Nc3ccc(F)cc32)c1C [sunitinib] + OCc1c[nH]c2ccccc12 [Indole-3-carbinol] (first compound 2 µM, partner dose 4 µM)
cell count (G361): 64.7%
cell count (IPC-298): 61.4%
cell count (IST-MEL1): 89.7%
cell count (LB2518-MEL): 58.1%
cell count (LOXIMVI): 117%
cell count (MEL-HO): 74.7%
cell count (MZ2-MEL): 78.3%
cell count (MeWo): 55.3%
cell count (RPMI7951): 59.2%
cell count (RVH-421): 54.4%

Cn1cnc2c(F)c(Nc3ccc(Br)cc3Cl)c(C(=O)NOCCO)cc21 [selumetinib] + NC(=O)Nc1cc(-c2cccc(F)c2)sc1C(=O)N[C@H]1CCCNC1 [AZD7762] (first compound 0.075 µM, partner dose 0.1 µM)
cell count (G361): 85.4%
cell count (IPC-298): 55%
cell count (IST-MEL1): 90.3%
cell count (LB2518-MEL): 36.1%
cell count (LOXIMVI): 84.3%
cell count (MEL-HO): 68.9%
cell count (MZ2-MEL): 77.6%
cell count (MeWo): 61%
cell count (RPMI7951): 31.8%
cell count (RVH-421): 85.1%

C[C@]1(O)C[C@@H](c2nc(-c3ccc4ccc(-c5ccccc5)nc4c3)c3c(N)nccn32)C1 + Nc1cccc2c1CN(C1CCC(=O)NC1=O)C2=O [lenalidomide] (first compound 2 µM, partner dose 5 µM)
cell count (G361): 81.4%
cell count (IPC-298): 88.8%
cell count (IST-MEL1): 102%
cell count (LB2518-MEL): 86.1%
cell count (LOXIMVI): 79.6%
cell count (MEL-HO): 97.5%
cell count (MZ2-MEL): 106%
cell count (MeWo): 92.2%
cell count (RPMI7951): 99.5%
cell count (RVH-421): 92.5%

C[C@]1(O)C[C@@H](c2nc(-c3ccc4ccc(-c5ccccc5)nc4c3)c3c(N)nccn32)C1 + CC(C)CCN1c2nc(Nc3cc(F)c(O)c(F)c3)ncc2N(C)C(=O)C1C [BID1870] (first compound 2 µM, partner dose 1 µM)
cell count (G361): 59.2%
cell count (IPC-298): 59.7%
cell count (IST-MEL1): 99%
cell count (LB2518-MEL): 82.4%
cell count (LOXIMVI): 67.9%
cell count (MEL-HO): 71.8%
cell count (MZ2-MEL): 72.6%
cell count (MeWo): 63.2%
cell count (RPMI7951): 95.2%
cell count (RVH-421): 20.2%

C[C@]1(O)C[C@@H](c2nc(-c3ccc4ccc(-c5ccccc5)nc4c3)c3c(N)nccn32)C1 + Cn1cncc1[C@@](N)(c1ccc(Cl)cc1)c1ccc2c(c1)c(-c1cccc(Cl)c1)cc(=O)n2C [tipifarnib] (first compound 2 µM, partner dose 0.05 µM)
cell count (G361): 52.4%
cell count (IPC-298): 79.7%
cell count (IST-MEL1): 77.4%
cell count (LB2518-MEL): 66.3%
cell count (LOXIMVI): 80.3%
cell count (MEL-HO): 83.6%
cell count (MZ2-MEL): 89.7%
cell count (MeWo): 64%
cell count (RPMI7951): 59.1%
cell count (RVH-421): 76.7%

CCN(CC)CCNC(=O)c1c(C)[nH]c(/C=C2\C(=O)Nc3ccc(F)cc32)c1C [sunitinib] + O=C1NC(=O)/C(=C/c2ccc(-c3ccc(F)cc3O)o2)S1 [AS252424] (first compound 2 µM, partner dose 5 µM)
cell count (G361): 77%
cell count (IPC-298): 70.8%
cell count (IST-MEL1): 94.3%
cell count (LB2518-MEL): 79.9%
cell count (LOXIMVI): 106%
cell count (MEL-HO): 86.5%
cell count (MZ2-MEL): 99%
cell count (MeWo): 62%
cell count (RPMI7951): 90.9%
cell count (RVH-421): 126%

CCN(CC)CCNC(=O)c1c(C)[nH]c(/C=C2\C(=O)Nc3ccc(F)cc32)c1C [sunitinib] + COC(=O)c1sccc1S(=O)(=O)Nc1ccc(Nc2ccccc2)cc1OC [GSK0660] (first compound 2 µM, partner dose 5 µM)
cell count (G361): 77.5%
cell count (IPC-298): 90.4%
cell count (IST-MEL1): 101%
cell count (LB2518-MEL): 71.3%
cell count (LOXIMVI): 101%
cell count (MEL-HO): 86.1%
cell count (MZ2-MEL): 98.2%
cell count (MeWo): 54.8%
cell count (RPMI7951): 71.5%
cell count (RVH-421): 80.9%

CCN(CC)CCNC(=O)c1c(C)[nH]c(/C=C2\C(=O)Nc3ccc(F)cc32)c1C [sunitinib] + CN(c1ncccc1CNc1nc(Nc2ccc3c(c2)CC(=O)N3)ncc1C(F)(F)F)S(C)(=O)=O [PF562271] (first compound 2 µM, partner dose 0.4 µM)
cell count (G361): 76.1%
cell count (IPC-298): 72.8%
cell count (IST-MEL1): 91.5%
cell count (LB2518-MEL): 60.9%
cell count (LOXIMVI): 112%
cell count (MEL-HO): 105%
cell count (MZ2-MEL): 97.8%
cell count (MeWo): 75.8%
cell count (RPMI7951): 65.7%
cell count (RVH-421): 81.6%

COc1cc([C@@H]2c3cc4c(cc3[C@@H](O[C@@H]3O[C@@H]5CO[C@@H](C)O[C@H]5[C@H](O)[C@H]3O)[C@H]3COC(=O)[C@H]23)OCO4)cc(OC)c1O [etoposide] + CS(=O)(=O)c1ccc(C(=O)Nc2ccc(Cl)c(-c3ccccn3)c2)c(Cl)c1 [vismodegib] (first compound 0.1 µM, partner dose 5 µM)
cell count (G361): 97.5%
cell count (IPC-298): 72.7%
cell count (IST-MEL1): 87.7%
cell count (LB2518-MEL): 88.9%
cell count (LOXIMVI): 67.6%
cell count (MEL-HO): 106%
cell count (MZ2-MEL): 80.5%
cell count (MeWo): 90.8%
cell count (RPMI7951): 103%
cell count (RVH-421): 121%

COc1cc([C@@H]2c3cc4c(cc3[C@@H](O[C@@H]3O[C@@H]5CO[C@@H](C)O[C@H]5[C@H](O)[C@H]3O)[C@H]3COC(=O)[C@H]23)OCO4)cc(OC)c1O [etoposide] + C[C@@H]1CCN(C(=O)CC#N)C[C@@H]1N(C)c1ncnc2[nH]ccc12 [CP690550] (first compound 0.1 µM, partner dose 5 µM)
cell count (G361): 126%
cell count (IPC-298): 89.8%
cell count (IST-MEL1): 103%
cell count (LB2518-MEL): 79%
cell count (LOXIMVI): 110%
cell count (MEL-HO): 98.6%
cell count (MZ2-MEL): 99.6%
cell count (MeWo): 90.3%
cell count (RPMI7951): 109%
cell count (RVH-421): 119%

C[C@]1(O)C[C@@H](c2nc(-c3ccc4ccc(-c5ccccc5)nc4c3)c3c(N)nccn32)C1 + COc1cc(N2CCC(N3CCN(C)CC3)CC2)ccc1Nc1ncc(Cl)c(Nc2ccccc2S(=O)(=O)C(C)C)n1 [NVP-TAE684] (first compound 2 µM, partner dose 0.4 µM)
cell count (G361): 90.3%
cell count (IPC-298): 112%
cell count (IST-MEL1): 81.8%
cell count (LB2518-MEL): 105%
cell count (LOXIMVI): 108%
cell count (MEL-HO): 84.5%
cell count (MZ2-MEL): 107%
cell count (MeWo): 75.9%
cell count (RPMI7951): 108%
cell count (RVH-421): 104%

COc1cc([C@@H]2c3cc4c(cc3[C@@H](O[C@@H]3O[C@@H]5CO[C@@H](C)O[C@H]5[C@H](O)[C@H]3O)[C@H]3COC(=O)[C@H]23)OCO4)cc(OC)c1O [etoposide] + CS(=O)(=O)CCNCc1ccc(-c2ccc3ncnc(Nc4ccc(OCc5cccc(F)c5)c(Cl)c4)c3c2)o1 [lapatinib] (first compound 0.1 µM, partner dose 4 µM)
cell count (G361): 68%
cell count (IPC-298): 50.5%
cell count (IST-MEL1): 75.1%
cell count (LB2518-MEL): 57%
cell count (LOXIMVI): 94%
cell count (MEL-HO): 78.8%
cell count (MZ2-MEL): 57.9%
cell count (MeWo): 70.5%
cell count (RPMI7951): 65.6%
cell count (RVH-421): 136%

C[C@]1(O)C[C@@H](c2nc(-c3ccc4ccc(-c5ccccc5)nc4c3)c3c(N)nccn32)C1 + COc1cc2c(Oc3ccc4[nH]c(C)cc4c3F)ncnc2cc1OCCCN1CCCC1 [cediranib] (first compound 2 µM, partner dose 2 µM)
cell count (G361): 86.7%
cell count (IPC-298): 115%
cell count (IST-MEL1): 111%
cell count (LB2518-MEL): 87.1%
cell count (LOXIMVI): 37.2%
cell count (MEL-HO): 90.7%
cell count (MZ2-MEL): 131%
cell count (MeWo): 76.8%
cell count (RPMI7951): 106%
cell count (RVH-421): 112%

Source: the supplement of paper PMC4604168 (melanoma cell lines)
